# The supplement of paper PMC8728848
# The list shows a part of the results.
# What was measured:
# Assay in all cases: glycan array binding signal (z-score within array); higher = stronger binding
# Settings in all cases: glycan notation: IUPAC condensed, linker removed
# [1] = target: GlcNAc(a1-6)Gal(b1-4)GlcNAc
# Procedure, shortened: (§1)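 Glycan array data were curated from 3228 arrays in the Consortium for Functional Glycomics database and kept only where the protein sequence was available. Glycan names were converted to IUPAC-condensed notation, and columns mapping to the same glycan were averaged. The binding signal is a within-array Z-score, averaged across arrays of the same protein sequence at different concentrations or buffers and across linkers. Negative Z-scores can be read as non-binding.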
# [2] = target: GlcNAc(b1-2)Gal(b1-3)GalNAc
# Procedure, shortened: as §1
# [3] = target: GlcNAc(b1-2)Man(a1-3)[GlcNAc(b1-2)Man(a1-6)]Man(b1-4)GlcNAc(b1-4)GlcNAc
# Procedure, shortened: as §1
# [4] = target: GlcNAc(b1-2)Man(a1-3)[GlcNAc(b1-2)Man(a1-6)]Man(b1-4)GlcNAc(b1-4)[Fuc(a1-6)]GlcNAc
# Procedure, shortened: as §1
# [5] = target: GlcNAc(b1-2)Man(a1-3)[GlcNAc(b1-4)][GlcNAc(b1-2)Man(a1-6)]Man(b1-4)GlcNAc(b1-4)GlcNAc
# Procedure, shortened: as §1
# [6] = target: GlcNAc(b1-2)Man(a1-3)[GlcNAc(b1-4)][GlcNAc(b1-2)Man(a1-6)]Man(b1-4)GlcNAc(b1-4)[Fuc(a1-6)]GlcNAc
# Procedure, shortened: as §1
# [7] = target: GlcNAc(b1-2)[GlcNAc(b1-4)]Man(a1-3)[GlcNAc(b1-2)Man(a1-6)]Man(b1-4)GlcNAc(b1-4)GlcNAc
# Procedure, shortened: as §1
# [8] = target: GlcNAc(b1-2)[GlcNAc(b1-4)]Man(a1-3)[GlcNAc(b1-4)][GlcNAc(b1-2)Man(a1-6)]Man(b1-4)GlcNAc(b1-4)GlcNAc
# Procedure, shortened: as §1
# [9] = target: GlcNAc(b1-2)[GlcNAc(b1-4)]Man(a1-3)[GlcNAc(b1-4)][GlcNAc(b1-2)[GlcNAc(b1-6)]Man(a1-6)]Man(b1-4)GlcNAc(b1-4)GlcNAc
# Procedure, shortened: as §1
# [10] = target: GlcNAc(b1-2)[GlcNAc(b1-4)]Man(a1-3)[GlcNAc(b1-4)][GlcNAc(b1-2)[GlcNAc(b1-6)]Man(a1-6)]Man(b1-4)GlcNAc(b1-4)[Fuc(a1-6)]GlcNAc
# Procedure, shortened: as §1
# [11] = target: GlcNAc(b1-2)[GlcNAc(b1-6)]Man(a1-6)[GlcNAc(b1-2)Man(a1-3)]Man(b1-4)GlcNAc(b1-4)GlcNAc
# Procedure, shortened: as §1
# [12] = target: GlcNAc(b1-2)[GlcNAc(b1-6)]Man(a1-6)[GlcNAc(b1-2)Man(a1-3)]Man(b1-4)GlcNAc(b1-4)[Fuc(a1-6)]GlcNAc
# Procedure, shortened: as §1
# [13] = target: GlcNAc(b1-2)[GlcNAc(b1-6)]Man(a1-6)[GlcNAc(b1-4)][GlcNAc(b1-2)Man(a1-3)]Man(b1-4)GlcNAc(b1-4)GlcNAc
# Procedure, shortened: as §1
# [14] = target: GlcNAc(b1-3)Fuc
# Procedure, shortened: as §1
# [15] = target: GlcNAc(b1-3)Gal
# Procedure, shortened: as §1
binder,measurement,setting,value
"Cp ZmpB (Clostridium perfringens), Q0TR08 (protein) MNKRKIAAIILATMITNLSATTIDVLAQELNTKNNSKVEVSHDDESHQARVSKFDLYNSDKLDAYNQEFQVSRSNIKSINNNGGKYNSSTIDKAIDGNLETHWETGKPNDANFTNEVVVTFNEITNIDRIVYSARRDSARGKGFAKEFEIYASLKDEGDDFNLVSSGEYTESTRDLVEIKFNPTDFKRLKFKFKKADQNWASAAEFMFYKEDKLNEKFNGLFTDSSMNKVSEEFNTLEKLNAFENELKDHPIYDLYKEGLNNARAILTETSENPTKATLGQITYNLNDDYNNQYRMPYKNIKAIKNNGRHYAAQNIEKAIDNDVNTYWETGTLNSSSFNNEVEVEFNDLVTLDRIVYGSRQSDLKGFAEEVYIYASRTSKGDTYKLVATGAHEATKGLVEAKFEPTEFKRVKFKFKKSKQNSATLNELMFYKPDEVYSSIPKLFTDGTMSELSEEFNSLEKINAFKEKAKNHPLYNDFNETIELAESLISNPRKEDVLELEMRGDSISEAKKRKVWNFQDWQITGLSARAGDKITVYVDVAEGDPTPTLLYKQSLTQHGGATSFQLKPGKNEITIPEINYESNGIPKDVIQGGDLFFTNYKSDSQKRAPKVRIEGASKYPVFILGKSDENEVMKELEAYVEKIKAEPKTTPNIFAVSSNKSLEFVQATYALDWYKKNNKTPKYTAEQWDQYIADAMGFWGFDNSKDVNSDFNFRIMPMVKNLSGGAFMNAGNGVIGIRPGNQDAILAANKGWGVAHELGHNFDTGGRTIVEVTNNMMPLFFESKYKTKTRITDQNIWENNTYPKVGLDDYSNNELYNKADSTHLAQLAPLWQLYLYDNTFYGKFERQFRERDFGNKNREDIYKSWVVAASDAMELDLTEFFARHGIRVDDKVKEDLAKYPKPDKKIYYLNDLAMNYKGDGFTENAKVSVSTSGSNGNIKLSFSVDDENKDNILGYEIRRDGKYVGFTSNDSFVDTKSNLDEDGVYVVTPYDRKLNTLNPIEVNALQPTLSVNPVITLALGEEFNEEEYIVAKDIKGNSLSESVKVKSSNVNTSKVGEYEVLYSLEDSKGNEYTKTSKVNVVSRKEYMSDLTPKQSSNGWGTVRKDKSISGGVIGLTRDGDFVDYNKGLGLHSNAEYVYDLEGKDYDYFESYVGVDKAMSSRPASSVIFKVLVDGEEKFNSGVMRSTTPQKYVKVDVKNAKELKLIVNDAGDGDSSDHASFGDAKLATLSSKPIIKGENLAYSMDEKVDLMKGITATDIEDGNITSKVQIKSSDFVEGKSGIFTVVYSVTDSDGLTSECSRTIAVTDKETQLSDLNWKSATIGSGSVRKDRAVSGNQIRLLNEDNSVETFAKGIGTHSYSEIVYNSEGYDIFDTWVGIDRHVADKKVSSVKFKVYVDGELKAETDVMRIDTPKKRLVVDVRNSKEIKLVVDVADNGNNWDHADWADAKFRNLAEYDASELNKAIEEAKKLDLNNYTEESSEALKNAISKGEEALLSKDKETINSALEELNKEMNSLVKVDLNAVINIPDKYLLKSIQNQLNKTGDITLGDMYSLTTLTLSGVEDLTGLENAKNLETLNMDYNEVKDLRPLSKLKKLNTLNAQEQFIAAGELKPSNGKVIGDSKVYNREGKNVAKTIRVVDKNGNTILEQDAKDEFTINTKDLSSGLYGVHVLFEDEGFSGVMFYLFNV",glycan array binding signal (z-score),[1],-0.262
same,glycan array binding signal (z-score),[2],2.81
same,glycan array binding signal (z-score),[3],-0.371
same,glycan array binding signal (z-score),[4],0.042
same,glycan array binding signal (z-score),[5],0.044
same,glycan array binding signal (z-score),[6],-0.313
same,glycan array binding signal (z-score),[7],1.11
same,glycan array binding signal (z-score),[8],-0.139
same,glycan array binding signal (z-score),[9],0.169
same,glycan array binding signal (z-score),[10],0.038
same,glycan array binding signal (z-score),[11],-0.399
same,glycan array binding signal (z-score),[12],-0.197
same,glycan array binding signal (z-score),[13],-0.277
same,glycan array binding signal (z-score),[14],-0.252
same,glycan array binding signal (z-score),[15],-0.286
